{"source": "PubChem BioAssay AID686979", "about": "(National Center for Advancing Translational Sciences (NCATS), 2013)", "note": "The whole screen tested about 420,000 compounds, of which about 50,000 (12%) were called active. The inconclusive results got no clear call from the source; some entries with a clear call stand among them for comparison. Calls follow the shape of the dose curve; as a rule, active = well fitted inhibition curve with a large enough effect; inconclusive = small, poorly fitted or top-dose-only effect; inactive = flat fitted curve, though single readings scatter. No potency is given beside an inconclusive call; the fits are too rough. % is scaled to controls: 0 for no effect and ±100 for the full control effect; potency is read from the fitted curve at half-maximal effect; tags tell the direction and shape of the fitted curve."}
{"experiment": "qHTS for Inhibitors of human tyrosyl-DNA phosphodiesterase 1 (TDP1): qHTS in cells in presence of CPT; also: nearly all actives have a fitted effect of over 55% in size", "conditions": "chicken DT40 Tdp1-/-;hTDP1 cells + 20 nM CPT, ATP luminescence, 48 h; activity change, negative = growth inhibition: at 46.2 µM (top of the series)", "in_short": "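Chicken DT40 Tdp1-/- cells stably complemented with human TDP1 were seeded at 400 cells/well in medium containing 20 nM camptothecin, exposed to pin-transferred compounds, and grown at 37 °C for at least 48 hr. Viability was read as ATP luminescence.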"}
{"smiles": "O=C(Cc1ccc(Br)cc1)Nc1ccc2[nH]ncc2c1", "Potency": "inactive"}
{"smiles": "O=C(NCCc1ccc2c(c1)OCCO2)c1cccc(S(=O)(=O)N2CCCC2)c1", "Potency": "inconclusive [inhibitor, single point]"}
{"smiles": "CCCCn1c(N)c(N(C(=O)CSc2nnc(C)n2-c2ccccc2)C2CCCC2)c(=O)[nH]c1=O", "Potency": "inactive"}
{"smiles": "Fc1ccc(-[n+]2nc(Nc3ccccc3)sc2-c2c3ccccc3cc3ccccc23)cc1", "Potency": "active: 5.8 µM"}
{"smiles": "CCN(C(=O)COC(=O)/C=C/c1cccc([N+](=O)[O-])c1)c1c(N)n(Cc2ccccc2)c(=O)[nH]c1=O", "Potency": "inconclusive [inhibitor, partial curve]"}
{"smiles": "Cc1ccc(N2CCN(c3ccc(C)cc3)C2c2ccccn2)cc1", "Potency": "inconclusive [inhibitor, partial curve]"}
{"smiles": "O=C(CSc1nc2c([nH]c3ccccc32)c(=O)n1-c1ccccc1)N1CCCCCC1", "Potency": "inconclusive [inhibitor, single point]"}
{"smiles": "CCN(CC)C(=O)[C@H]1C[C@H](CC(=O)NCCc2ccccn2)C(=O)N2CCc3c([nH]c4cc(-c5ccco5)ccc34)[C@]12C", "Potency": "active: 18.4 µM"}
{"smiles": "Cc1cccc(C)c1Nc1c(-c2ccc(N3CCOCC3)cc2)nc2cnccn12", "Potency": "inconclusive [inhibitor, single point]"}
{"smiles": "CN(C)C(=O)CSc1nc2ccccc2c(=O)[nH]1", "Potency": "inconclusive [inhibitor, single point]"}
{"smiles": "COc1ccccc1N1CCN(C(=O)CSc2nnc(NC(=O)C3CC3)s2)CC1", "activity change, negative = growth inhibition": "inconclusive: -33.3% [inhibitor]"}
{"smiles": "O=C(CC1SC(N2CCOCC2)=NC1=O)Nc1cc([N+](=O)[O-])ccc1Cl", "note": "(centres undefined)", "Potency": "inactive"}
{"smiles": "Cc1ccc(C(=O)N(CC(=O)NC2CCCC2)c2ccccc2F)s1", "Potency": "inactive"}
{"smiles": "CCCCCCCC(=O)N/N=C(\\C)c1ccc(O)cc1O", "Potency": "inconclusive [inhibitor, single point]"}
{"smiles": "O=c1c2ccccc2[nH]c(=S)n1CCCN1CCN(c2ccccc2F)CC1", "Potency": "active: 2.91 µM"}
{"smiles": "O=C(O)c1ccc(NC(=O)c2cc3ccccc3o2)cc1", "activity change, negative = growth inhibition": "inconclusive: -30.5% [inhibitor]"}
{"smiles": "CCOC(=O)N1CCN(C(=S)Nc2cc(S(=O)(=O)N3CCOCC3)ccc2Cl)CC1", "Potency": "inconclusive [inhibitor, single point]"}
{"smiles": "Cc1c(C(=O)Nc2ccc(S(=O)(=O)N3CCOCC3)cc2)cccc1[N+](=O)[O-]", "Potency": "inconclusive [inhibitor, single point]"}
{"smiles": "CCOC(=O)[C@]12CCC=C1N(CCC1=CCCCC1)C(=O)[C@H](CC(=O)N1CCOCC1)C2", "Potency": "inconclusive [inhibitor, single point]"}
